From PubChem BioAssay AID743279 (National Center for Advancing Translational Sciences (NCATS), 2014)
Several values for one entry are separate records, joined by “and”; a condition that tells them apart may be missing. Equal entries are not always repeated. The whole screen tested about 360,000 compounds, of which about 17,000 (4.7%) were called active. The inconclusive results got no clear call from the source; some entries with a clear call stand among them for comparison. No stated cut-off is given here; in the data, active means activity change below about -50%; inconclusive means mostly about -30% to -49%; inactive means weaker than that.

experiment: qHTS for Inhibitors of Inflammasome Signaling: IL-1-beta AlphaLISA Primary Screen; conditions: THP-1 LPS/ATP IL-1B secretion, 16 h; at 57.5 µM, hits give low values
Method in brief: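 THP-1 cells pretreated 1 hr with compounds (up to 57.5 uM final), then stimulated with LPS (250 ng/mL final) plus ATP (1.25 mM final); secreted IL-1B measured by AlphaLISA after 16 hr, decreased signal indicating inhibition.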
On the % scale 0 is the no-effect control and ±100 the full control effect.

| Compound | activity change |
| --- | --- |
| O=C(CSc1nc(-c2ccccc2)c(-c2ccccc2)o1)NC1CCS(=O)(=O)C1 (configuration not stated) | inconclusive: -42.3% |
| Cc1ccc(O)c(NC(=O)CSc2ccc(Cl)cc2)c1 | inconclusive: -30.6% |
| CCOc1ccc(OCCSc2nc3ccccc3[nH]2)cc1 | inconclusive: -48.4% |
| Cc1ccc(NC(=O)c2cc(N3C(=O)C=CC3=O)ccc2N2CCOCC2)cc1Cl | active: -57.4% |
| COc1ccc(Cn2nnnc2C(c2cccs2)N2CCOCC2)cc1 (configuration not stated) | inactive: 9.08% |
| O=S(=O)(NCc1ccco1)c1ccc2ccccc2c1 | inconclusive: -40.6% |
| Cc1ccc2cc(C)c3nnc(SCC(=O)Nc4nc5c(s4)CCCC5)n3c2c1C | inactive: -24% |
| COC(=O)[C@@]12C[C@@H](CC(=O)NCc3ccc(C)o3)C(=O)N(Cc3ccc4c(c3)OCO4)C1=CCC(C)(C)C2 | inconclusive: -36.8% |
| Cc1c(C(=O)c2ccc(F)cc2)c2ccccn2c1CCc1ccccn1 | active: -85.7% |
| Cc1ccc(-c2cc(C(=O)Nc3cccnc3)[nH]n2)c(O)c1C | inconclusive: -31.2% |
| CCS(=O)(=O)Nc1ccc(C2=NN(C(=O)c3ccccc3)C(c3cccs3)C2)cc1 (configuration not stated) | inconclusive: -43.1% |
| CCOC(=O)c1nc(Nc2ccc(Nc3ccccc3)cc2)c2ccccc2n1 | active: -64.8% |
| COc1ccc(C)cc1NC(=O)Nc1ccc(C(=O)N2CCCC2)cc1 | inconclusive: -41.5% |
| O=C(Nc1ccccc1-c1nnn(CC(=O)N2CCCc3ccccc32)n1)c1ccco1 | inconclusive: -33.4% |
| CCN(CC(=O)NCc1cccs1)C(=O)c1ccc(-c2cccc(C(F)(F)F)c2)o1 | active: -79.5% |
| CCc1c(C)sc(NC(=O)c2cccs2)c1C(N)=O | active: -92.1% |
| COc1ccc2cc(C3CC(c4cccs4)=NN3C(C)=O)c(Cl)nc2c1 (configuration not stated) | inactive: 10.4% |
| Cc1[nH]c(C)c(S(=O)(=O)Nc2ccc(OC(F)(F)F)cc2)c1C(=O)N1CCCCC1 | inconclusive: -38.9% |
| Cc1ccc(CN2C3CCCC2CC(NC(=O)c2ccc(C)cc2)C3)cc1 (configuration not stated) | inactive: -12.1% |
| Cc1ccccc1N1CCN(C2CCCN(C(=O)CCN3CCCO3)C2)CC1 (configuration not stated) | inactive: 15.3% |
| C[N+](C)(CC#Cc1ccccc1)CC(=O)c1ccc(Cl)cc1 | inconclusive: -47.7% |
| N#CC1=C(N)C(C#N)(C#N)C2(C(=O)Nc3ccccc32)C2CCCC=C12 (configuration not stated) | active: -52.9% |

| Compound | activity change |
| --- | --- |
| Cc1cc(OC(C)C(=O)NNC(=O)Nc2ccc(F)cc2F)cc(C)c1Cl (configuration not stated) | inconclusive: -34% |
| COc1ccc(F)c(CN2CCC(CO)(Cc3cccc(C(F)(F)F)c3)CC2)c1 | inconclusive: -37.6% |
| O=C(Nc1ccc(F)c(Cl)c1)c1cncs1 | inactive: 33.6% |
| CS(=O)(=O)Nc1ccc(C(=O)Nc2ccccc2-c2ccccc2)cc1 | inconclusive: -43.8% |
| Cc1ccc(S(=O)(=O)NCc2ccccc2Br)cc1 | inconclusive: -37.3% |
| Cc1ccc(-c2nn3c(C)nnc3s2)cc1NCc1c(F)cccc1Cl | inactive: -20.7% |
| Oc1ccc(Nc2nc(-c3cccnc3)cs2)cc1 | inconclusive: -34.5% |
| COc1ccc(CCNC(=O)Cn2nnc(C(=O)Nc3cc(C)ccc3C)c2N)cc1OC | inactive: 7.33% |
| CCOC(=O)C1CCN(CC(O)COc2ccc(C(C)(C)CC)cc2)CC1 (configuration not stated) | inconclusive: -44.2% |
| CCc1cccc2c(-c3csc(=NC)n3C)c[nH]c12 | active: -72.7% |
| COc1ccc(C2=NOC(C(=O)N(C)Cc3ccccc3)C2)cc1 (configuration not stated) | inactive: 6.5% |
| O=C(NC1CCCC1)c1cccc(NC(=O)c2ccco2)c1 | inconclusive: -32% |
| COc1ccccc1CNS(=O)(=O)CCNC1CC1 | inactive: 8% |
| CCn1nc(C)cc1-c1nnc(Sc2ncc([N+](=O)[O-])s2)n1C | active: -99.2% |
| O=C(c1cccc2ccccc12)N1CCN(CC2CC=CCC2)CC1 (configuration not stated) | inconclusive: -32.3% |
| Brc1nnc2n1-c1ccccc1Sc1ccccc1-2 | inconclusive: -37.1% |
| Cc1c(C(=O)Nc2c(F)cccc2F)sc2ncn(CC(=O)N3CCCCC3)c(=O)c12 | inactive: 20% |
| CCCCCCC(O)(c1ccc(OC)cc1)C(CN1CCOCC1)c1ccccc1 (configuration not stated) | inconclusive: -41.7% |
| Nc1ccc2nc(SCC(=O)N3CCOCC3)sc2c1 | inactive: 36.4% |
| CC[n+]1ccccc1/C=C/c1ccc(N(C)C)cc1 | active: -57.2% |
| COc1ccc2[nH]cc(CCNC(=O)c3ccc([N+](=O)[O-])cc3)c2c1 | inconclusive: -39.2% |
| Cn1ccnc1C1CCCCN1C(=O)c1cc(COc2ccc(F)cc2Cl)on1 (configuration not stated) | inconclusive: -32.3% |

| Compound | activity change |
| --- | --- |
| Oc1ccc(Nc2ccc3ccccc3c2)cc1 | inconclusive: -32.5% |
| O=C(C1CC1)N1CCc2sccc2C1c1ccc(Cl)cc1 (configuration not stated) | inconclusive: -48.3% |
| Cc1nc2ccc(Cl)cc2c(-c2ccccc2Cl)c1CC(=O)O | inactive: 35.8% |
| COc1ccc(C2=NN(S(C)(=O)=O)C(c3cccs3)C2)cc1OC (configuration not stated) | inactive: -8.55% |
| C[C@H](CO)N1C[C@H](C)[C@@H](CN(C)C(=O)Nc2ccc(C(F)(F)F)cc2)Oc2c(NC(=O)C3CCCCC3)cccc2C1=O | active: -57.8% |
| O=C(CCCN1CCC(c2ccccc2)C1)c1ccc2c(c1)OCCO2 (configuration not stated) | inconclusive: -42.1% |
| Cc1[nH]c2ccc(C(=O)NCCCN(C)C3CCCCC3)cc2c1C | inconclusive: -38.9% |
| COc1ccc(OCc2nc(N)nc(Nc3ccccc3OC)n2)cc1 | inconclusive: -49.1% |
| COc1ccc(NC(=O)COc2nsnc2N2CCOCC2)c(OC)c1 | inactive: 4.37% |
| CCCCc1nc2cc(C(=O)N3CCC(O)CC3)ccc2o1 | inactive: -5.34% |
| COc1ccc(C(C(=O)Nc2ccc(F)cc2)N2CCN(CC(=O)N3CCCC3)CC2)cc1 (configuration not stated) | inactive: -8.72% |
| Cc1[nH]c2ccccc2c1C(=O)CSc1nc2ccccc2c(=O)n1CCCN1CCOCC1 | inconclusive: -42.3% |
| CC(C)c1ccc(NC(=O)CSc2nc(=O)n(CCCN3CCOCC3)c3c2CCC3)cc1 | active: -62.6% |
| Cc1c(Cl)cccc1NC(=O)c1ccc(OCC(=O)NCc2ccccc2)cc1 | inactive: -13.7% |
| Cc1ccc(-n2cc(CNCC3CC(=O)N(C4CC4)C3)c(-c3cccc(C)c3)n2)cc1 (configuration not stated) | active: -63.9% |
| COc1cc(OC)nc(NC(=O)CSc2nnc(-c3ccccc3)n2C2CCCCC2)n1 | inactive: -23.9% |
| Cc1ccc(S(=O)(=O)CC(=O)N(CCCN(C)C)c2nc3ccc(C)cc3s2)cc1 | active: -54.6% |
| c1ccc(-c2cn3c4c(sc3n2)CCCC4)cc1 | inactive: 18.9% and inactive: -17% |
| CCOC(=O)CS(=O)(=O)c1nc(-c2ccccc2)cc(C(F)(F)F)n1 | active: -125% |
| O=C(C1=C[C@@H](c2ccccc2)C[C@@H](OCc2ccc(CO)cc2)O1)N1CCN(Cc2ccc3c(c2)OCO3)CC1 | inconclusive: -35.1% |
| Cc1cccc(OCC(=O)N2CCN(C(=O)CCC3CCCC3)CC2)c1 | inconclusive: -30.8% |
| NC(N)=N/N=C/c1ccc2cccc(OCc3ccccc3)c2n1 | active: -96% |

| Compound | activity change |
| --- | --- |
| COc1ccc(C(=O)N2CCN(c3ccc(NC(=O)c4cccs4)cc3)CC2)cc1 | inconclusive: -38.6% |
| CCOC(=O)C1CCCN(C(=O)Cn2cnc3sc(C)c(S(=O)(=O)N4CCOCC4)c3c2=O)C1 (configuration not stated) | active: -53% |
| O=C(c1cc2c(s1)-c1ccccc1S(=O)(=O)C2)N1CCN(Cc2ccccc2)CC1 | inactive: -8.59% |
| CCN(CC)c1nc(-c2ccccn2)nc(-c2ccccc2)c1C#N | inconclusive: -31.2% |
| COc1ccc(-c2noc(CCC(=O)Nc3cccc(C(=O)NC4CC4)c3)n2)cc1OC | active: -52.6% |
| CCN(CC)CCN(C(=O)CCOc1ccccc1)c1nc2c(F)cc(F)cc2s1 | inconclusive: -32.2% |
| CC(=O)Nc1ccc(N(C(=O)CNC(=O)c2ccco2)C(C(=O)NCc2ccco2)c2ccccc2)cc1 (configuration not stated) | inconclusive: -36% |
| NC(=O)c1ccc(C(=O)N/N=C/c2cccc(Oc3ccccc3)c2)cc1 | inactive: -3.62% |
| C=CCOc1ccccc1CN1CCC(CO)(CCOc2ccccc2)CC1 | inconclusive: -45.1% |
| Cn1cnnc1SCC(=O)Nc1sc2c(c1C(N)=O)CCC2 | inconclusive: -38.4% |
| Cc1ccc(NC(=S)NCC2CCN(C(C)c3ccccc3)C2)cc1C (configuration not stated) | inactive: -28.6% |
| COc1ccccc1CNC(=O)COC(=O)/C=C/c1ccc2ccccc2n1 | inconclusive: -49% |
| CC1CC(C)(C)CC2(C1)NC(=O)N(CC(=O)N1CCN(S(=O)(=O)c3ccc(F)c(F)c3F)CC1)C2=O (configuration not stated) | inconclusive: -36.7% |
| CN(Cc1ccco1)C(=O)c1ccc(S(=O)(=O)N2CCCCCC2)cc1 | inconclusive: -41.6% |
| CC(C)(C)CC(C)(C)N=C1Nc2cc(Cl)c(Cl)cc2NC12C[C@H]1CCC(=O)N3CC[C@@H](C2)[C@@H]13 (some centres not stated) | active: -64.2% |
| O=C(Cn1ncc(Cl)c(Cl)c1=O)Nc1ccc2c(c1)OCO2 | active: -99.3% |
| Cc1cc(C)c(NC(=O)CSc2nc3ncc(Cl)cc3[nH]2)c(C)c1 | inconclusive: -45.5% |
| COc1ccc(Nc2ncc(C(=O)N3CCN(c4ccccc4OC)CC3)c3ccccc23)cc1 | inconclusive: -32.8% |
| CN(CC(=O)Nc1ccccc1C(F)(F)F)Cc1c(O)ccc2ccccc12 | inconclusive: -49.3% |
| CN(CC(=O)Nc1cccc(F)c1)C(=O)c1cc(-c2cccs2)nn1-c1ccccc1 | inactive: -6.26% |
| COc1cccc(/C=N/NC(=O)c2c(-c3ccccc3)noc2C)c1O | inactive: 116% |
